Publication PMC4336329 (PLoS ONE, 2015)
Out of some 310,000 compounds screened, about 2,200 (0.71%) showed an effect of 50% or more. Effects have a minus sign here. This is one part of the list.

What follows are molecules tested against human ether-à-go-go-related gene (hERG) potassium channel (human, UniProt Q12809) (assay: primary screen, population patch clamp on CHO cells stably expressing hERG).
Chain of human ether-à-go-go-related gene (hERG) potassium channel (Q12809 whole entry, looked up): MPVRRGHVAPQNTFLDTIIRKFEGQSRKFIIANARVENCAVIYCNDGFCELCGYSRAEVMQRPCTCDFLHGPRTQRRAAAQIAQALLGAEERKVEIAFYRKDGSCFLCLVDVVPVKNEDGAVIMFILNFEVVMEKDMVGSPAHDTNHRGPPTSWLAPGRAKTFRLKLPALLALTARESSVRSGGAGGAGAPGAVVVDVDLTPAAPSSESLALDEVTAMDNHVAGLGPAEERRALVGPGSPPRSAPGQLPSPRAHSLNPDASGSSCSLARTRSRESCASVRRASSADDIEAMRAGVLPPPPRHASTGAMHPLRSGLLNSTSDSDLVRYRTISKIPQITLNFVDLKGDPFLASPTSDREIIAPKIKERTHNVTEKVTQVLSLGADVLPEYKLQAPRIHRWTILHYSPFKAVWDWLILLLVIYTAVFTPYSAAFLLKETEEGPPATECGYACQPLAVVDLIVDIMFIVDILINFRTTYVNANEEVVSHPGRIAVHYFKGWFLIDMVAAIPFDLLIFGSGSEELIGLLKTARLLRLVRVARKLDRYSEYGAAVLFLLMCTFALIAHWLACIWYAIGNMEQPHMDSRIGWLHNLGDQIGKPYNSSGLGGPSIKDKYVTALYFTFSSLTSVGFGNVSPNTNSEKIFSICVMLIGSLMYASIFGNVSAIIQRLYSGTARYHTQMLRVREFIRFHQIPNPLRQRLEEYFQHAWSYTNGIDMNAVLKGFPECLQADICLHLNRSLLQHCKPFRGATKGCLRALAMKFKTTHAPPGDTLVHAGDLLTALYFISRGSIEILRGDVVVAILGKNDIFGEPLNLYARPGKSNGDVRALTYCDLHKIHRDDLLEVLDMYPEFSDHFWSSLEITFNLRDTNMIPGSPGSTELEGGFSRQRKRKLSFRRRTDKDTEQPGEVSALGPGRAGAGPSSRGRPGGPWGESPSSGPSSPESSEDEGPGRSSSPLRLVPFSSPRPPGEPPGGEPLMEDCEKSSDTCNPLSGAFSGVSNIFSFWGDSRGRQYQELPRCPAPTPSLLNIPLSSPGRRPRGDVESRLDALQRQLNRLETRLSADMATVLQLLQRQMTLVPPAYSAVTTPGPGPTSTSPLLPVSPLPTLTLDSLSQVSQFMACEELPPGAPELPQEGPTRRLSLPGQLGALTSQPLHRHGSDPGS

Structure (SMILES)	hERG current change (%, negative = inhibition) at 1uM
CC(C)(CNC(=O)c1ccc(S(=O)(=O)Nc2cccc(C(F)(F)F)c2)cc1)N1CCOCC1	-8.04%
N#Cc1c(SCc2cccc(Cl)c2)sc(C(=O)c2ccccc2)c1N	13.6%
CCOC(=O)c1sc2ncnc(N3CCN(CC)CC3)c2c1C	-9.54%
CN(C)C(=O)/C(=C\c1ccc(-c2cccc([N+](=O)[O-])c2)o1)NC(=O)c1ccccc1	-30.1%
COc1ccc(NC(=O)C(c2ccc(OC)cc2)N(C)C(=O)Cc2cccs2)cc1 (stereo not drawn)	0.764%
Cc1nc(NC(=O)c2ccc3c(c2)OCO3)ccc1Br	11%
COc1ccc(S(=O)(=O)Nc2c(C)ccc3nsnc23)cc1OC	-0.479%
COc1cc2c(cc1OC)C1=C(C#N)CCC(=NC(=O)c3ccc(Cl)cc3)N1CC2	10.4%
Cc1cc(OC(F)F)ccc1NC(=O)Nc1ccc2c(c1)OCO2	7.92%
CCCCc1nc(NCCNC(=O)c2ccco2)c(C#N)c2c1CSC(C)(C)C2	8.24%
O=C(O)c1ccc(CNC(=S)Nc2ccccc2)cc1	17.2%
Cc1oc(C(=O)O)cc1COc1cccc2ccccc12	17.7%
CCN(CC)S(=O)(=O)c1ccc(NC(=O)Cc2cccs2)cc1	16.2%
Cc1ccc2[nH]c(=O)c(CNC(C)(C)C)cc2c1	-2.84%
COc1ccc(N(CC(=O)Nc2cccc(C)c2)S(=O)(=O)c2c(C)n[nH]c2C)cc1	9.89%
CN(C)CCCNc1oc(-c2cccc(Cl)c2)nc1C#N	-1.51%
CCN(CC(=O)Nc1cccc(F)c1)Cc1nc2ccccc2c(=O)[nH]1	-5.69%
CCC(CC)c1nc(C(N)=O)c2[nH]c(=O)n(-c3ccc(OC)c(OC)c3)c2n1	5.43%
O=C(OCc1nnc(-c2ccc([N+](=O)[O-])cc2)o1)C1CC(=O)N(CCc2ccccc2)C1 (stereo not drawn)	-17.8%
CCc1noc(C)c1C(=O)Nc1ccc(S(=O)(=O)N2CCC(C)CC2)cc1	6.53%
Cc1cc(C)n(-c2nc(SCC(=O)Nc3nccs3)c3c4c(sc3n2)COC(C)(C)C4)n1	4.81%
O=C(CSc1nnc(NC(=O)C2CC(=O)N(c3ccccc3)C2)s1)NCc1ccco1 (stereo not drawn)	12%
CCOc1ccc(-n2cc(C(=O)N3CCN(C)CC3)c3cc(OC)c(OC)cc3c2=O)cc1	11.6%
CC(C)CCN1CC(C(=O)NCCC2=CCCCC2)CC1=O (stereo not drawn)	1.53%
Cc1ccc(-c2nnc(N3CCN(C(=O)Cn4c(=O)n(C)c5ccccc54)CC3)c3ccccc23)cc1	-7.71%
Cc1sc2ncn(CC(=O)NCCCC(=O)N3CCN(c4ccccn4)CC3)c(=O)c2c1C	6.08%
CCCCN1C(=O)c2ccc(C(=O)NC3(C)CCS(=O)(=O)C3)cc2C1=O (stereo not drawn)	2.04%

Structure (SMILES)	hERG current change (%, negative = inhibition) at 1uM
COc1ccc(C(=O)N2CCN(Cc3ccccc3C(F)(F)F)CC2)cc1.O=C(O)C(=O)O	8.32%
CCOC(=O)N1CCN(C(=O)Nc2ccc3nccnc3c2)CC1	8.48%
CCC(=O)c1ccc(OCC(=O)Nc2nn3cnnc3s2)cc1	15.4%
COc1ccc(Br)cc1S(=O)(=O)n1nc(C)cc1C	2.12%
COc1cc(C(=O)N[C@@H](C)C(=O)N2CCC3(CC2)NCCc2[nH]cnc23)cc(OC)c1OC	15.3%
COc1cc(/C=C/C(=O)OCC(=O)N2CCCc3ccccc32)ccc1OCC#N	14.6%
NC(=O)CC(NC(=O)Cc1ccc(Br)cc1)c1ccc(N2CCN(c3ccccc3)CC2)c([N+](=O)[O-])c1 (stereo not drawn)	4.29%
CCOC(=O)c1csc(NC(=O)CSc2nnnn2-c2ccc(OC)cc2)n1	8.86%
COC(=O)N/N=C/c1ccc([N+](=O)[O-])o1	-1.05%
CCn1ncc(N(C)N)c(Cl)c1=O	17.8%
COc1ccc(OC)c(C2C(C(C)=O)=C(O)C(=O)N2CCC(=O)O)c1 (stereo not drawn)	3.75%
Cc1ccc(SCC(=O)NCCSC(C)(C)C)cc1	9.33%
Cc1nc2ccc([N+](=O)[O-])cc2c(=O)n1Cc1ccc(Br)cc1	14.8%
CC1CCCN(C(=O)CSc2nnc(-c3c[nH]c4ccccc34)o2)C1 (stereo not drawn)	16.3%
CCN1C(=O)/C(=C/c2cc(C)n(C)c2C)SC1=Nc1ccc(OC)cc1	13.4%
CC1CCCN(CCCNC(=O)C2CCC(CNS(=O)(=O)c3cccc4nsnc34)CC2)C1 (stereo not drawn)	-9.46%
CCC(C)(C)n1nnnc1C(c1cc2cc(C)cc(C)c2[nH]c1=O)N1CCN(C(=O)c2ccco2)CC1 (stereo not drawn)	13.5%
c1ccc(CCCOCCC2CO2)cc1 (stereo not drawn)	10.4%
CC(=O)Nc1cc2ccc(OC(C)=O)cc2oc1=O	12.7%
COc1ccc(-c2cc(=O)[nH]c(N3CCN(Cc4ccccc4)CC3)n2)cc1	13%
Cc1ccc(-c2noc(CCC(=O)Nc3ccc4c(c3)OCO4)n2)cc1	10.6%
Cc1ccc(SCCNS(=O)(=O)c2ccc(F)cc2)cc1	15.6%
Cc1cccc(N/C(N)=N/c2nc(CSc3ccc(Cl)cc3)cc(=O)[nH]2)c1	10.7%
CCN(CC)CCOc1ccccc1OC.O=C(O)C(=O)O	7.13%
CC(=O)N(C)c1ccc(NC(=S)Nc2cccc3ccccc23)cc1	11.4%
O=C(COC(=O)c1ccc2c(c1)C(=O)N(Cc1ccncc1)C2=O)Nc1cccc2ccccc12	6.71%
CCN(CC)CCN1C(=O)C(=O)/C(=C(/O)c2ccc(S(=O)(=O)N3CCOCC3)cc2)C1c1ccc(Cl)cc1 (stereo not drawn)	13.9%
